Source: the supplement of paper PMC11417369
± gives the standard deviation of the averaged measurements. The list shows a part of the results.

system: PfAP2-EXP AP2 domain (GST-tagged); assay: gcPBM binding intensity (ln(normalized median fluorescence intensity)); higher = stronger DNA binding
Summary of the method: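 For binding intensity, the highest Masliner-normalised natural-log median intensity across replicate spots of either probe orientation was taken. Protein bound to the array was stained with Alexa488 anti-GST antibody and scanned at 488 nm. The protein, GST-tagged P. falciparum DNA-binding domains from E. coli at about 25 μg on average, had been applied for 1 h to an Agilent 4 × 180k array of primer-extended double-stranded 36-bp intergenic genomic probes and negative controls.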

Sequence | gcPBM binding intensity (ln)
ATTATTTAGAAATGAGCACACAAAAAGAAGAATTTT [CACACA_site7913] | 8.65 ± 0.52
TATTTATTTATTTATGCATGCATGAATAATTTTTAC [TGCATGCA_site31] | 9.78 ± 0.18
ATAATAATATAAAATACACACCTATTATTTTTACAA [CACACA_site6069] | 8.32 ± 0.38
CCACATATACAAAACACACACACAACGTTTTAATAA [CACACA_site1978] | 8.74 ± 0.61
ACAAGAGAAGTAATTGCACACGTTGTTTCTTTTTCT [CACACA_site35] | 8.94 ± 0.28
TCACTATAGTAATTTACACACATTTGAAGAAAATGT [CACACA_site7626] | 8.47 ± 0.33
GTGTTAATTTTAAATTGTACAAAATTTATATGATTT [XGTACX_site348] | 8.45 ± 0.38
GAAAAGCATAGATGCACACATATATATATATATATA [CACACA_site2169] | 10.1 ± 0.39
ATTAATTTTGGTTCATGTACATAAGAAATAAACTCT [XGTACX_site4534] | 8.65 ± 0.39
ATTTTTATACGTTTTTTTTTTTTTTTTTTTTATTTA [CACACA_negctrl_site1142] | 8.32 ± 0.49
ATATACTTTTTTTTTTTTTTTTTAACGTTATTTATG [CACACA_negctrl_site1277] | 8.38 ± 0.61
AAAATATATGAAAACAGTACATATAAAAATTAAAAA [XGTACX_site2594] | 8.5 ± 0.3
TTACACATATATATAAATATATATAAATATATATAT [CACACA_negctrl_site150] | 8.72 ± 0.14
TACAGACAGAAATGCACACACATATATATATATATA [CACACA_site2283] | 10.1 ± 0.57
TATTTGTTTGAATTTTTTTTTTTTTTTTTTTATGTG [CACACA_negctrl_site966] | 7.97 ± 0.58
TTTATATTTCAATTTTGTGCTTCGCAAATTGAGAGG [TGCATGCA_negctrl_site327] | 8.37 ± 0.3
CACTACATTATGTCATAAATGCATACATAAACATAT [GTGCAC_negctrl_site513] | 8.65 ± 0.32
TATAACATAATATAGACACACACATGTACTTATGCC [CACACA_site8547] | 8.61 ± 0.35
ATTTTTTGGAAAAGAAGTACAATGGATTTATACGTT [XGTACX_site891] | 8.51 ± 0.34
AATGTTTTTTTTTTTTTTTTTTTTTATTTATTGTTA [CACACA_negctrl_site505] | 8.09 ± 0.51
ATCAAATAATAGCAAACACACAAAAAATAAAAAAAA [CACACA_site4146] | 8.55 ± 0.55
TAACATATAATATTATGTACATATATACATATATAA [XGTACX_site7467] | 8.43 ± 0.26
AAAAAATCACGACACACACACACACTAAAAAAAAAA [CACACA_site6792] | 8.6 ± 0.49
AGAATACATATATGAACACACAGAGTTTTAAAAAAT [CACACA_site2735] | 8.87 ± 0.42
